Data on 24 molecules can be found in patent US11618753B2 (priority 2018, dated 2023).

Molecules are shown by their SMILES.

This assay relates to MLKL phosphorylation, HT29-L23 human colorectal adenocarcinoma cells. Kind of assay: cells. The settings on record: read-out: pMLKL HCS Cell Assay (IC50, uM).
Take `COc1cc(C(=O)N[C@@H]2CN(C(=O)CC(F)(F)F)C[C@@H]2F)cc(-c2cc(C(F)(F)F)c3c(N)ncnn23)c1` [Example 590, 3-[4-amino-5-(trifluoromethyl)pyrrolo[2,1-f][1,2,4]triazin-7-yl]-N-[(3R,4S)-4-fluoro-1-(3,3,3-trifluoropropanoyl)pyrrolidin-3-yl]-5-methoxybenzamide]: the IC50 (commonly the concentration that inhibits the measured activity by half) turned out to be 0.108 µM.

On to `CC(C)(F)C(=O)N1C[C@H](F)[C@H](NC(=O)c2cc(-c3cc(C(F)(F)F)c4c(N)ncnn34)c(Cl)cc2F)C1` [Example 522, 5-[4-amino-5-(trifluoromethyl)pyrrolo[2,1-f][1,2,4]triazin-7-yl]-4-chloro-2-fluoro-N-[(3R,4S)-4-fluoro-1-(2-fluoro-2-methylpropanoyl)pyrrolidin-3-yl]benzamide], for which the IC50 amounted to 0.131 µM.

As for `COc1ncc(-c2cc(C(F)(F)F)c3c(N)ncnn23)cc1C(=O)N[C@@H]1CN(CC(O)(c2ccccc2)C(F)(F)F)C[C@@H]1F` (stereo partly drawn) [Example 1824, 5-(4-amino-5-(trifluoromethyl)pyrrolo[2,1-f][1,2,4]triazin-7-yl)-N-((3R,4S)-4-fluoro-1-(3,3,3-trifluoro-2-hydroxy-2-phenylpropyl)pyrrolidin-3-yl)-2-methoxynicotinamide], the half-inhibitory concentration (IC50) is 0.014 µM.

With `COc1ncc(-c2cc(-c3cncc(C#N)c3)c3c(N)ncnn23)cc1C(=O)N[C@@H]1CN(C(=O)[C@@](C)(O)C(F)(F)F)C[C@@H]1F` [Example 1568, 5-[4-amino-5-(5-cyanopyridin-3-yl)pyrrolo[2,1-f][1,2,4]triazin-7-yl]-N-[(3R,4S)-4-fluoro-1-[(2R)-3,3,3-trifluoro-2-hydroxy-2-methylpropanoyl]pyrrolidin-3-yl]-2-methoxypyridine-3-carboxamide], the 50% inhibitory concentration (IC50) was found to be 0.046 µM.

As to `CCC(=O)N1C[C@H](F)[C@H](NC(=O)c2cc(-c3cc(C(F)(F)F)c4c(N)ncnn34)cnc2OC)C1` [Example 310, 5-[4-amino-5-(trifluoromethyl)pyrrolo[2,1-f][1,2,4]triazin-7-yl]-N-[(3R,4S)-4-fluoro-1-propanoylpyrrolidin-3-yl]-2-methoxypyridine-3-carboxamide], the half-inhibitory concentration (IC50) came out at 0.294 µM.

In the case of `Cc1nc(C)c(-c2cc(C(F)(F)F)c3c(N)ncnn23)cc1C(=O)N[C@@H]1CN(C(=O)c2c(F)cccc2F)C[C@@H]1F` [Example 1200, 5-[4-amino-5-(trifluoromethyl)pyrrolo[2,1-f][1,2,4]triazin-7-yl]-N-[(3R,4S)-1-(2,6-difluorobenzoyl)-4-fluoropyrrolidin-3-yl]-2,6-dimethylpyridine-3-carboxamide], the IC50 amounted to 0.02 µM.

As to `COc1ncc(-c2cc(C(F)(F)F)c3c(N)ncnn23)cc1C(=O)N[C@@H]1CN(C(C)c2nc(Br)sc2Br)C[C@@H]1F` (stereo partly drawn) [Example 1398, 5-[4-amino-5-(trifluoromethyl)-pyrrolo[2,1-f][1,2,4]triazin-7-yl]-N-[(3R,4S)-1-[1-(2,5-dibromo-1,3-thiazol-4-yl)-ethyl]-4-fluoropyrrolidin-3-yl]-2-methoxypyridine-3-carboxamide], the IC50 worked out at 0.028 µM.

Consider `Nc1ncnn2c(-c3cc(C(=O)N[C@@H]4CN(C(=O)CC(O)(C(F)(F)F)C(F)(F)F)C[C@@H]4F)c(Cl)cc3F)cc(C(F)(F)F)c12` [Example 885, 5-[4-amino-5-(trifluoromethyl)pyrrolo[2,1-f][1,2,4]triazin-7-yl]-2-chloro-4-fluoro-N-[(3R,4S)-4-fluoro-1-[4,4,4-trifluoro-3-hydroxy-3-(trifluoromethyl)butanoyl]pyrrolidin-3-yl]benzamide], for which the IC50 was found to be 0.005 µM.

`Nc1ncnn2c(-c3ccc(F)c(C(=O)NCCC(O)(c4ccccc4)C(F)(F)F)c3)cc(C(F)(F)F)c12` (stereo not drawn) [Example 249, 5-[4-amino-5-(trifluoromethyl)pyrrolo[2,1-f][1,2,4]triazin-7-yl]-2-fluoro-N-(4,4,4-trifluoro-3-hydroxy-3-phenylbutyl)benzamide]: the concentration for half-maximal inhibition (IC50) is 0.201 µM.

`Cc1ncc(-c2cc(C(F)(F)F)c3c(N)ncnn23)cc1C(=O)Nc1cnn(CC(F)(F)F)c1` [Example 176, 5-[4-amino-5-(trifluoromethyl)pyrrolo[2,1-f][1,2,4]triazin-7-yl]-2-methyl-N-[1-(2,2,2-trifluoroethyl)-1H-pyrazol-4-yl]pyridine-3-carboxamide]: the half-maximal inhibitory concentration (IC50) came to 0.066 µM.

Turning to `Cc1cc(F)c(-c2cc(C(F)(F)F)c3c(N)ncnn23)cc1C(=O)N[C@@H]1CN(C(=O)C2CCC(F)(F)CC2)C[C@@H]1F` [Example 800, 5-[4-amino-5-(trifluoromethyl)pyrrolo[2,1-f][1,2,4]triazin-7-yl]-N-[(3R,4S)-1-(4,4-difluorocyclohexanecarbonyl)-4-fluoropyrrolidin-3-yl]-4-fluoro-2-methylbenzamide], the IC50 stood at 0.003 µM.

As to `Cc1c(F)cc(-c2cc(C(F)(F)F)c3c(N)ncnn23)cc1C(=O)N[C@@H]1CN(C(=O)C2CC(F)(F)C2)C[C@@H]1F` [Example 677, 5-[4-amino-5-(trifluoromethyl)pyrrolo[2,1-f][1,2,4]triazin-7-yl]-N-[(3R,4S)-1-(3,3-difluorocyclobutanecarbonyl)-4-fluoropyrrolidin-3-yl]-3-fluoro-2-methylbenzamide], the 50% inhibitory concentration (IC50) turned out to be 0.0021 µM.

Turning to `Cc1cc(F)c(-c2cc(C(F)(F)F)c3c(N)ncnn23)cc1C(=O)N[C@@H]1CN(C(=O)c2cc(F)cc(F)c2)C[C@@H]1F` [Example 816, 5-[4-amino-5-(trifluoromethyl)pyrrolo[2,1-f][1,2,4]triazin-7-yl]-N-[(3R,4S)-1-(3,5-difluorobenzoyl)-4-fluoropyrrolidin-3-yl]-4-fluoro-2-methylbenzamide], the half-maximal inhibitory concentration (IC50) is 0.028 µM.

As for `Nc1ncnn2c(-c3cccc(C(=O)N[C@@H]4CN(C(=O)CC(F)(F)F)C[C@@H]4F)c3)cc(C(F)(F)F)c12` [Example 98, 3-[4-amino-5-(trifluoromethyl)pyrrolo[2,1-f][1,2,4]triazin-7-yl]-N-[(3R,4S)-4-fluoro-1-(3,3,3-trifluoropropanoyl)pyrrolidin-3-yl]benzamide], the 50% inhibitory concentration (IC50) is 0.182 µM.

Turning to `CCc1ccc(-c2cc(C(F)(F)F)c3c(N)ncnn23)c(F)c1C(=O)N[C@@H]1CN(C(=O)CC(C(F)(F)F)C(F)(F)F)C[C@@H]1F` [Example 736, 3-[4-amino-5-(trifluoromethyl)pyrrolo[2,1-f][1,2,4]triazin-7-yl]-6-ethyl-2-fluoro-N-[(3R,4S)-4-fluoro-1-[4,4,4-trifluoro-3-(trifluoromethyl)butanoyl]pyrrolidin-3-yl]benzamide], the 50% inhibitory concentration (IC50) stood at 0.046 µM.

`CC(O)(CC(=O)N1C[C@H](F)[C@H](NC(=O)c2cc(-c3cc(CN4CCC(C(F)(F)F)CC4)c4c(N)ncnn34)ccc2Cl)C1)C(F)(F)F` (stereo partly drawn) [Example 1153, 5-(4-amino-5-{[4-(trifluoromethyl)piperidin-1-yl]methyl}pyrrolo[2,1-f][1,2,4]triazin-7-yl)-2-chloro-N-[(3R,4S)-4-fluoro-1-(4,4,4-trifluoro-3-hydroxy-3-methylbutanoyl)pyrrolidin-3-yl]benzamide]: the half-maximal inhibitory concentration (IC50) was 0.0028 µM.

As to `COc1ncc(-c2cc(C(F)(F)F)c3c(N)ncnn23)cc1C(=O)Nc1cn(CCc2ccccc2)cn1` [Example 1784, 5-(4-amino-5-(trifluoromethyl)pyrrolo[2,1-f][1,2,4]triazin-7-yl)-2-methoxy-N-(1-phenethyl-1H-imidazol-4-yl)nicotinamide], the IC50 amounted to 0.049 µM.

For `COc1ncc(-c2cc(C(F)(F)F)c3c(N)ncnn23)cc1C(=O)N[C@@H]1CN(C(=O)c2cncs2)C[C@@H]1F` [Example 1666, 5-(4-amino-5-(trifluoromethyl)pyrrolo[2,1-f][1,2,4]triazin-7-yl)-N-((3R,4S)-4-fluoro-1-(thiazole-5-carbonyl)pyrrolidin-3-yl)-2-methoxynicotinamide], the 50% inhibitory concentration (IC50) worked out at 0.013 µM.

Turning to `COc1ncc(-c2cc(C(F)(F)F)c3c(N)ncnn23)cc1C(=O)N[C@@H]1CN(CC(C)(O)C(F)(F)F)C[C@@H]1F` (stereo partly drawn) [Example 1820, 5-(4-amino-5-(trifluoromethyl)pyrrolo[2,1-f][1,2,4]triazin-7-yl)-N-((3R,4S)-4-fluoro-1-(3,3,3-trifluoro-2-hydroxy-2-methylpropyl)pyrrolidin-3-yl)-2-methoxynicotinamide], the IC50 was found to be 0.013 µM.

In the case of `CCC(C)OC(=O)N1C[C@H](F)[C@H](NC(=O)c2cc(-c3cc(C(F)(F)F)c4c(N)ncnn34)cnc2OC)C1` (stereo partly drawn) [Example 1424, butan-2-yl (3R,4S)-3-{5-[4-amino-5-(trifluoromethyl)pyrrolo[2,1-f][1,2,4]triazin-7-yl]-2-methoxypyridine-3-amido}-4-fluoropyrrolidine-1-carboxylate], the IC50 is 0.0025 µM.

With `Cc1ccc(-c2cc(C(F)(F)F)c3c(N)ncnn23)cc1C(=O)Nc1cn(Cc2ccc(Cl)cc2)cn1` [Example 1809, 5-(4-amino-5-(trifluoromethyl)pyrrolo[2,1-f][1,2,4]triazin-7-yl)-N-(1-(4-chlorobenzyl)-1H-imidazol-4-yl)-2-methylbenzamide], the 50% inhibitory concentration (IC50) came out at 0.001 µM.

As for `[2H]C([2H])([2H])Oc1ncc(-c2cc(CN3CC(F)(F)C3)c3c(N)ncnn23)cc1C(=O)N[C@@H]1CN(C(=O)C2CCC(F)(F)C2)C[C@@H]1F` (stereo partly drawn) [Example 1272, 5-{4-amino-5-[(3,3-difluoroazetidin-1-yl)methyl]pyrrolo[2,1-f][1,2,4]triazin-7-yl}-N-[(3R,4S)-1-(3,3-difluorocyclopentanecarbonyl)-4-fluoropyrrolidin-3-yl]-2-(methoxy-d3)nicotinamide], the concentration for half-maximal inhibition (IC50) turned out to be 0.00038 µM.

Turning to `[2H]C([2H])([2H])Oc1ncc(-c2cc(CN3CC(F)(F)C3)c3c(N)ncnn23)cc1C(=O)N[C@@H]1CN(S(=O)(=O)CC(F)(F)F)C[C@@H]1F` [Example 1278, 5-{4-amino-5-[(3,3-difluoroazetidin-1-yl)methyl]pyrrolo[2,1-f][1,2,4]triazin-7-yl}-N-[(3R,4S)-4-fluoro-1-(2,2,2-trifluoroethanesulfonyl)pyrrolidin-3-yl]-2-(methoxy-d3)nicotinamide], the IC50 is 0.0019 µM.

On to `COc1ncc(-c2cc(C(F)(F)F)c3c(N)ncnn23)cc1C(=O)N[C@@H]1CN(S(=O)(=O)c2cccc(F)c2)C[C@@H]1F` [Example 504, 5-[4-amino-5-(trifluoromethyl)pyrrolo[2,1-f][1,2,4]triazin-7-yl]-N-[(3R,4S)-4-fluoro-1-(3-fluorobenzenesulfonyl)pyrrolidin-3-yl]-2-methoxypyridine-3-carboxamide], for which the IC50 was 0.046 µM.
